# Data: PubChem BioAssay AID652104 (National Center for Advancing Translational Sciences (NCATS), 2013)
# In all, about 410,000 compounds went through this assay and about 7,200 (1.8%) were called active. This list was built around the results that the source calls inconclusive (neither active nor inactive); the mix of calls is not that of the screen. Calls follow the shape of the dose curve; as a rule, active = well fitted activation curve with a large enough effect; inconclusive = small, poorly fitted or top-dose-only effect, or another doubt; inactive = no such curve, though single readings can be large or run the other way. No potency is given beside an inconclusive call; the fits are too rough.
# Assay: qHTS of TDP-43 Inhibitors; also: nearly all actives have a fitted effect of over 50% in size; as to growth rescue (activation): % of control where 0% means no effect
# Conditions: TDP-43 expressing yeast growth rescue, BacTiter-Glo, 24 h; growth rescue (activation): at 46.1 µM (top of the series) unless noted
# How it was run: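 Yeast expressing TDP-43 (pregrown in raffinose, seeded at OD600=0.02 in galactose medium) exposed to compounds 24 hr at 30 deg C. Growth read by BacTiter-Glo luminescence; rescue of toxicity appears as increased signal.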
# Potency is read from the fitted curve at half-maximal effect; tags tell the direction and shape of the fitted curve.
SMILES,Potency,growth rescue (activation)
O=[N+]([O-])c1ccc(-c2c(-c3ccccc3)ncc3ccc(F)cc23)cc1,active: 17.8 µM,–
O=C(CNC(c1ccccc1)c1ccccc1)Nc1cc([N+](=O)[O-])ccc1Cl,"inconclusive [activator, partial curve]",–
O=C(COc1ccc(F)cc1)Nc1ccc(OCc2cc(=O)n3ccsc3n2)cc1,"inconclusive [activator, full curve, poor fit]",–
CN(Cc1ccccc1)C(=O)CSc1c2c(nc3ccc(Cl)cc13)CCCC2,active: 20 µM,–
OCCN(CCO)c1nc(N2CCCCC2)c2nc(N(CCO)CCO)nc(N3CCCCC3)c2n1,"inconclusive [activator, partial curve, poor fit]",–
CCc1noc(C)c1C(=O)N1CCN(c2cccc(Cl)c2)CC1,"inconclusive [activator, full curve, poor fit]",–
CC1C(=O)N(Cc2cn(CCC3OCCO3)nn2)CCS(=O)(=O)N1Cc1ccc(-c2ccc(Cl)cc2)cc1 (configuration not stated),active: 28.2 µM,–
Cc1cc(C(=O)CN2C(=O)c3ccccc3S2(=O)=O)c(C)n1C(C)C,"inconclusive [activator, single point]",–
CC(=O)Nc1ccc2c(c1)C(=Nc1ccc(C)cc1)c1ccccc1-2,"inconclusive [activator, partial curve]",–
CCN1C(=O)[C@H]2[C@@H](c3ccc(C)cc3)N[C@]3(CCCN(Cc4ccc(Cl)cc4)C3=O)[C@H]2C1=O,–,inactive: 28.4%
CCC1=C(OC(=O)N(CC)CC)N2C(=O)OC(=NCC3CC3)[C@]2(Cc2ccccc2)[C@H]2C1=CC[C@H]1C(=O)N(CC(=O)OC)C(=O)[C@H]12,"inconclusive [activator, single point]",–
COc1ccc(-n2nc(C(=O)NCCc3ccc(Cl)cc3)c3c4ccccc4n(C)c3c2=O)cc1,–,inactive: 11.7%
CCOC(=O)N1CCN(C(=O)c2cc3cc(C)ccc3[nH]2)CC1,"inconclusive [activator, partial curve]",–
Cc1ccc(NC(=O)Cn2c(=O)n(CCC(=O)N3CCc4ccccc4C3)c(=O)c3ccccc32)c(C)c1,–,inactive: -6.09%
COc1ccccc1NC(=S)NNC(=S)Nc1ccc(OC(F)F)cc1,"inconclusive [activator, single point]",–
CCn1c(=N)c(C(=O)NC)cc2c(=O)n3cccc(C)c3nc21,–,inactive: -4.68%
Cc1ccc(NC(=O)CSc2nc3ccccc3nc2Cc2ccccc2F)cc1F,"inconclusive [activator, full curve, poor fit]",–
